The whole screen tested about 420,000 compounds, of which about 64,000 (15%) were called active. Inconclusive results, whose numbers are uncertain, are shown with a selection of clear calls. The call rests on the fitted dose curve; in most records, active means well fitted inhibition curve with a large enough effect; inconclusive means small, poorly fitted or top-dose-only effect; inactive means flat fitted curve, though single readings scatter. No potency is given beside an inconclusive call; the fits are too rough.
experiment: qHTS for Inhibitors of human tyrosyl-DNA phosphodiesterase 1 (TDP1): qHTS in cells in absence of CPT; settings: DT40 Tdp1-/- hTDP1 cells, no CPT, ATP luminescence, 48 h; activity change, negative = growth inhibition: at 46.2 µM (top of the series) unless noted; further: nearly all actives have a fitted effect of over 55% in size
Method in brief: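 Compound effects on proliferation are scored in DT40 Tdp1-/-;hTDP1 cells in the absence of CPT. ATP levels (CellTiter-Glo luminescence) are recorded after a ≥48 hr, 37 °C incubation.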
On the % scale 0 is the no-effect control and ±100 the full control effect; potency means the concentration at half of the fitted maximal effect; tags describe the fitted curve by direction and shape.

Structure (SMILES) | Potency | activity change, negative = growth inhibition
O=C(c1cc2ccccc2cc1O)N1CCN(c2ccc([N+](=O)[O-])cc2)CC1 | active: 14.6 µM | 
COCc1cc(C)nc(OCC(=O)N/N=C/c2ccc(O)cc2O)c1C#N | inconclusive [inhibitor, single point] | 
CN(C1CCCCC1)S(=O)(=O)c1ccc(=S)[nH]c1 | inconclusive [inhibitor, single point] | 
Cc1cc(Br)ccc1NC(=O)c1cn(C2CCCC2)c(=O)c2c1c1ccccc1n2C | inconclusive [inhibitor, partial curve, poor fit] | 
C=CCN1C(=O)CS/C1=N\S(=O)(=O)c1ccc(Cl)cc1 |  | inconclusive: -31.2% [inhibitor]
COc1cc(OC)cc(C(=O)Nc2ccccc2C(=O)NCc2cccnc2)c1 | inconclusive [inhibitor, single point] | 
Cc1cccc(C(=O)N2CCc3cc(CNC(=O)Cc4ccc(F)cc4)ccc32)c1 | inconclusive [inhibitor, single point] | 
Cc1nc(C(F)(F)F)ccc1C(=O)N1CCC1(C)C(=O)NS(=O)(=O)c1cccc(C#N)c1 (stereo not given) |  | inactive: 7.81%
CCOc1ccccc1NC(=O)CSc1nc2c(c(=O)n(C)c(=O)n2C)n1C | inconclusive [inhibitor, single point] | 
CCOC(=O)C(C)/C(C)=N/NC(N)=S (stereo not given) | inconclusive [inhibitor, partial curve, poor fit] | 
CC(C)Nc1nc(N)c(C(=O)C23CC4CC(CC(C4)C2)C3)s1 | inconclusive [inhibitor, single point] | 
Cc1nn(C)c(Cl)c1CN1CCCC(C(=O)Nc2ccc(-c3cscn3)cc2)C1 (stereo not given) | inconclusive [inhibitor, single point] | 
CC1=Nc2ccc(C)cc2N(Cc2ccccc2)C(=O)C1 | inconclusive [inhibitor, partial curve] | 
CCOc1cc(/C=C/c2nc3cc(C)c(C)cc3s2)ccc1OCC(=O)N1CCOCC1 | inconclusive [inhibitor, partial curve] | 
O=C(CC1SC(N2CCCCC2)=NC1=O)Nc1cccc(C(F)(F)F)c1 (stereo not given) | inconclusive [inhibitor, single point] | 
CC(C)(C)NC(=O)c1cc(NC(=O)c2cccs2)cc(NC(=O)c2cccs2)c1 | active: 20.6 µM | 
CCc1ccccc1N(C)C(=O)c1cnc(N2CCOCC2)c2ccccc12 |  | inactive: -72.3%
Cc1ccc(S(=O)(=O)n2nccc2-c2c(-c3ccc(Cl)cc3)noc2C)cc1 | active: 16.4 µM | 
COc1ccc(NC(=O)/C=N/O)cc1 |  | inactive: 2.53%
C=CCn1c(=O)c2ccccc2n2c(SCC(=O)c3ccccc3)nnc12 | inconclusive [inhibitor, single point] | 
Cc1cc(NC(=S)NC(=O)C2CC2)ccc1Br | inconclusive [inhibitor, single point] | 
CC(C)(C)OC(=O)[C@H](Cc1ccccc1)NC(=O)c1nc[nH]c1C(=O)N1CCc2ccccc2C1 | inconclusive [inhibitor, partial curve] | 
CC(=O)NC(c1ccccc1)c1nc(-c2cccs2)cs1 (stereo not given) | inconclusive [inhibitor, single point] | 
Cc1cc(S(=O)(=O)NCc2ccco2)c(C)cc1Cl | inconclusive [inhibitor, single point] | 

Structure (SMILES) | Potency | activity change, negative = growth inhibition
CC(/C=N/NC(=O)Cc1cc(=O)[nH][nH]1)=C\c1ccccc1 |  | inactive: -1.69%
CCOC(=O)C1=C[C@@H](C(C)(C)C)N(S(=O)(=O)c2ccccc2C)[C@H]1c1ccc(Cl)cc1 | inconclusive [inhibitor, single point] | 
CC(=O)c1cc2c(cc1NC(=O)CN1CCN(c3cccc(C(F)(F)F)c3)CC1)OCO2 | inconclusive [inhibitor, partial curve] | 
CCC(=O)C1=C(c2cccc([N+](=O)[O-])c2)N(C(=O)CC)n2c(nnc2-c2ccccc2)S1 | active: 3.26 µM | 
COc1ccccc1C(=O)NC(=O)Nc1nc(-c2ccccc2)cc(C(F)(F)F)n1 | inconclusive [inhibitor, partial curve] | 
NS(=O)(=O)c1cccc(NC(=O)COC(=O)CC2CC3CCC2C3)c1 (stereo not given) |  | inactive: 1.05%
CC(=O)NCCNC(=O)C1(C)Cc2c(-c3cccc(C(F)(F)F)c3)ccnc2O1 (stereo not given) |  | inactive: 9.86%
CCCCN(C(=O)c1ccco1)c1nnc(-c2cc(OC)c(OC)c(OC)c2)s1 | inconclusive [inhibitor, partial curve] | 
CC1(C(=O)NS(=O)(=O)c2ccc(F)cc2F)CCN1C(=O)Cc1cc(F)ccc1F (stereo not given) |  | inactive: -20.7%
O=C(NCc1ccccc1)c1ccccc1CO | inconclusive [inhibitor, single point] | 
COc1ccccc1-c1cnc2c(c1)C(=O)N([C@@H](C)CO)C[C@@H](C)[C@@H](CN(C)C(C)=O)O2 |  | inactive: 1.99%
CCc1ccccc1OCC(=O)Nc1cc(S(=O)(=O)N(CC)CC)ccc1N1CCOCC1 | active: 16.4 µM | 
O=C(CSc1ccccc1C(=O)O)NCc1ccccc1 |  | inactive: -9.13%
Cc1ccc(Nc2nc(Cl)nc(NC(C)(C)C)n2)cc1 | active: 23.1 µM | 
CCN(C(=O)COC(=O)c1cc([N+](=O)[O-])ccc1N1CCOCC1)c1ccccc1 | active: 14.6 µM | 
c1ccc(Cn2cc(CN3CCCCO3)c(-c3ccc4c(c3)OCO4)n2)cc1 | inconclusive [inhibitor, single point] | 
CS(=O)(=O)N(CC(=O)NCc1ccccc1Cl)Cc1ccccc1 |  | inconclusive: -33.6% [inhibitor]
CN(CC(=O)N1CCOCC1)S(=O)(=O)c1ccc2ccccc2c1 |  | inactive: 0.624%
C=CCN1CCN(c2nc3ccccc3nc2C#N)CC1 |  | inconclusive: -32.4% [inhibitor]
CCc1c(C(=O)N2CCN(c3ccccc3F)CC2)[nH]c(C)c1C(C)=O | inconclusive [inhibitor, partial curve] | 
CCO[C@H]1OC(C(=O)NC2CC2)=C[C@@H](C2CCCCC2)[C@@H]1CCCO | active: 23.1 µM | 
COc1ccc(-c2cc3nc(-c4ccccc4)cc(N4CCC5(CC4)OCCO5)n3n2)cc1 | inconclusive [inhibitor, partial curve] | 
Cc1ccc(C(OCC(O)CN2CCCCC2)c2ccccc2)cc1 (stereo not given) | active: 23.1 µM | 
COC(=O)c1sc2cccc(F)c2c1S(=O)(=O)N1CCN(c2ccccc2OC)CC1 | inconclusive [inhibitor, single point] | 

Structure (SMILES) | Potency | activity change, negative = growth inhibition
COc1ccc(OC)c(NC(=O)CSc2nc(-c3ccccc3C)nc3cc(=O)[nH]n23)c1 | inconclusive [inhibitor, single point] | 
CC(=O)c1ccc(NC(=O)CSc2nnc(NC(=O)CN3CCOCC3)s2)cc1 |  | inactive: 3.92%
CC(NC(=O)c1nn(C)c2c1CSc1ccccc1-2)c1ccccc1 (stereo not given) | inconclusive [inhibitor, single point] | 
CC1CCN(C(=O)CN2CCSc3ccccc32)CC1 |  | inactive: -27.8%
N=c1c(C(=O)NC2CCCC2)cc2c(=O)n3ccccc3nc2n1CC1CCCO1 (stereo not given) |  | inactive: 5.95%
CC(C)C(NS(=O)(=O)c1ccccc1)C(=O)OCc1cc([N+](=O)[O-])cc2c1OCOC2 (stereo not given) |  | inconclusive: -33.3% [inhibitor]
CC(=O)c1cccc(NC(=O)CCCN2C(=O)COc3ccc(C)cc32)c1 | inconclusive [inhibitor, single point] | 
CCOc1ccc(C(=O)Nc2nnc(S(=O)(=O)N(CC)c3ccccc3C)s2)cc1 | inconclusive [inhibitor, single point] | 
O=C(NCCc1ccccc1)c1ccc2c(c1)CCN2S(=O)(=O)c1ccc(Br)cc1 | inconclusive [inhibitor, partial curve] | 
CCn1ccnc1CNCc1cn(-c2cc(C)ccc2C)nc1-c1ccccc1 | inconclusive [inhibitor, single point] | 
Cc1ccccc1NC(=O)Nc1ccccc1N1CCCCC1 | active: 23.1 µM | 
COc1ccc(-n2c(C)nnc2SCC(=O)N2CCOCC2)cc1 |  | inactive: 1.55%
CC(OC(=O)C1CCN(c2ccc(C(F)(F)F)cn2)CC1)C(=O)c1ccccc1 (stereo not given) | inconclusive [inhibitor, single point] | 
CCn1cc(C(=O)O)c(=O)c2cnc(N3CCN(C(=S)NC(=O)c4ccccc4)CC3)nc21 |  | inactive: -10%
Cc1[nH]c2ccccc2c1/C=N\NC(=O)Cn1nnc(-c2ccccc2)n1 | inconclusive [inhibitor, single point] | 
Cc1ccc(-c2cc(NC(=O)C(C)Oc3ccc(C)c(C)c3)on2)cc1 (stereo not given) | inconclusive [inhibitor, single point] | 
O=C(CCCN1C(=O)/C(=C\c2ccccc2)SC1=S)Nc1cccc(C(=O)O)c1 |  | inactive: -18.2%
COC(=O)c1cnn2c(C)c(Cc3cccc(F)c3)c(C)nc12 | inconclusive [inhibitor, single point] | 
COc1ccc(/C=C/C(=O)OCC(=O)N2c3ccccc3CC2C)cc1OC (stereo not given) |  | inactive: -7.34%
COc1ccc(CNc2ccc3cc(S(=O)(=O)N4CCCCC4)ccc3n2)cc1 | active: 18.4 µM | 
Cn1nc(C(=O)Nc2ccccc2Cl)cc1C(=O)Nc1ccccc1Cl | inconclusive [inhibitor, partial curve] | 
O=C(Cc1ccccc1)Nc1c(C(=O)N2CCN(c3ccc(F)cc3)CC2)oc2ccccc12 | active: 25.9 µM | 
